# Reference: the antibiotic and cytotoxicity screens of Wong et al. (2023)
# The other results are listed elsewhere or left out.
# Tests used:
# HSkMC = human skeletal muscle cells; experiment: cytotoxicity call (relative viability < 0.9); conditions: 10 µM
# S. aureus RN4220 = experiment: growth inhibition call (relative growth <= 0.2); conditions: 50 µM
SMILES,cytotoxicity call (HSkMC),growth inhibition call (S. aureus RN4220)
C[C@H](CO)N1C[C@H](C)[C@H](CN(C)C(=O)Nc2cccc3ccccc23)Oc2ncc(-c3cc4ccccc4o3)cc2C1=O,inactive,inactive
COc1cccc(NC(=O)N[C@H]2CC[C@H](CC(=O)N3CCN(C)CC3)O[C@H]2CO)c1,inactive,inactive
COc1ccc(CN(C)C[C@@H]2Oc3ccc(NC(=O)Nc4cccc5ccccc45)cc3C(=O)N([C@H](C)CO)C[C@H]2C)cc1,inactive,inactive
CNC[C@@H]1CC[C@@H](N)[C@@H](O[C@H]2[C@H](O)[C@@H](O[C@H]3OC[C@](C)(O)[C@H](NC)[C@H]3O)[C@H](N)C[C@@H]2N)O1,inactive,inactive
COc1ccc(S(=O)(=O)N(C)C[C@@H]2OCCCC[C@@H](C)Oc3ccc(NC(=O)Nc4ccc(C(F)(F)F)cc4)cc3C(=O)N([C@H](C)CO)C[C@H]2C)cc1,inactive,inactive
COc1ccc(COC[C@@]23Oc4ccccc4[C@@H](NC(=O)N2C(=O)c2ccccc2)[C@H]3CO[Si](C)(C)C(C)(C)C)cc1,inactive,inactive
O=c1ccc(-c2ccncc2)n[nH]1,inactive,inactive
C[C@H](O)C#Cc1ccc2c(c1)O[C@@H](CN(C)C(=O)c1ccncc1)[C@@H](C)CN([C@@H](C)CO)S2(=O)=O,inactive,inactive
C[C@H]1CN([C@@H](C)CO)C(=O)c2cccc(NC(=O)Nc3ccccc3)c2O[C@@H]1CN(C)C(=O)Nc1cccc2ccccc12,inactive,inactive
COCC(=O)N1C[C@H](C)[C@H](OC)CN(C)C(=O)c2cc(NC(=O)c3ccc(OC)cc3)ccc2OC[C@H]1C,inactive,inactive
C[C@@H]1CN([C@@H](C)CO)C(=O)c2cc(NC(=O)CCC(F)(F)F)ccc2O[C@@H]1CN(C)Cc1ccc(-c2ccccc2)cc1,inactive,inactive
CCCSc1nc(N[C@@H]2C[C@H]2c2ccc(F)c(F)c2)c2nnn([C@@H]3C[C@H](OCCO)[C@@H](O)[C@H]3O)c2n1,inactive,active
C[C@@H]1CN([C@@H](C)CO)S(=O)(=O)c2ccc(Br)cc2O[C@H]1CN(C)Cc1ccccc1F,inactive,inactive
C[C@@H]1CCCCO[C@@H](CN(C)S(=O)(=O)c2ccc(Cl)cc2)[C@@H](C)CN([C@@H](C)CO)C(=O)c2cc(NS(=O)(=O)c3cccs3)ccc2O1,inactive,inactive
C[C@H]1CN([C@@H](C)CO)C(=O)Cc2cc(NC(=O)Nc3ccc(C(F)(F)F)cc3)ccc2O[C@@H]1CN(C)C(=O)Nc1ccccc1,inactive,inactive
C[C@H]1CN([C@@H](C)CO)S(=O)(=O)c2ccc(-c3cccc(F)c3)cc2O[C@H]1CN(C)S(C)(=O)=O,inactive,inactive
O=C(C[C@@H]1CC[C@H]2[C@@H](COC[C@@H](O)CN2S(=O)(=O)c2ccccc2F)O1)N1CCC(Cc2ccccc2)CC1,inactive,inactive
C[C@H](CO)N1C[C@H](C)[C@H](CN(C)S(=O)(=O)c2ccc(Cl)cc2)Oc2ccc(NC(=O)C3CC3)cc2CC1=O,inactive,inactive
CO[C@@H]1CN(C)C(=O)c2cc(NS(=O)(=O)CC(F)(F)F)ccc2OC[C@@H](C)N(Cc2ccccn2)C[C@@H]1C,inactive,inactive
NCCCC[C@@H](N)C(=O)N[C@@H](Cc1ccc(O)cc1)C(=O)N[C@@H](CCCCN)C(=O)O,inactive,inactive
C[C@H](CO)N1C[C@H](C)[C@H](CN(C)S(=O)(=O)c2ccc(Cl)cc2)OCCCC[C@H](C)Oc2ccc(NS(=O)(=O)c3cccs3)cc2C1=O,inactive,inactive
Cc1cc(O)cc(C)c1Cl,inactive,inactive
NC[C@@H](O)C1CCCCC1,inactive,inactive
CN(CCO)c1ccccn1,inactive,inactive
O=C(O)CCc1n[nH]c(=S)[nH]c1=O,inactive,inactive
COc1cccc(S(=O)(=O)N2C[C@H](O)COC[C@H]3O[C@@H](CC(=O)NCCCN4CCOCC4)CC[C@@H]32)c1,inactive,inactive
C[C@@H]1CN([C@@H](C)CO)C(=O)c2cc(NC(=O)Cc3ccccc3)ccc2O[C@@H](C)CCCCO[C@@H]1CN(C)Cc1ccccc1,inactive,inactive
C[C@@H]1CN([C@H](C)CO)C(=O)c2cccc(NC(=O)Nc3ccccc3)c2O[C@@H]1CN(C)CC1CCCCC1,inactive,inactive

SMILES,cytotoxicity call (HSkMC),growth inhibition call (S. aureus RN4220)
CO[C@H]1CN(C)C(=O)c2cc(NC(=O)C3CC3)ccc2OC[C@H](C)N(C(=O)CN2CCOCC2)C[C@@H]1C,inactive,inactive
C[C@H](CO)N1C[C@H](C)[C@@H](CN(C)CC2CCCCC2)Oc2ccc(NC(=O)Nc3ccc(F)cc3)cc2C1=O,inactive,inactive
Cc1cc(-c2ccc3ccccc3n2)nc2ccc3ccccc3c12,inactive,inactive
C[C@H](CO)N1C[C@H](C)[C@@H](CN(C)S(=O)(=O)c2cn(C)cn2)Oc2ncc(/C=C/c3ccccc3)cc2C1=O,inactive,inactive
CCCCCCc1ccc(O)cc1O,active,active
O=C(O)c1cc(O)c(O)c(O)c1,inactive,inactive
C[C@H](CO)N1C[C@H](C)[C@@H](CN(C)S(=O)(=O)c2ccc(Cl)cc2)Oc2ccc(NC(=O)CCN3CCOCC3)cc2CC1=O,inactive,inactive
O=S1(=O)[C@@H]2C[C@H]3C=CC2(CN1C1CC1)O3,inactive,inactive
Cc1ccc(S(=O)(=O)Nc2ccc3c(c2)C(=O)N([C@H](C)CO)C[C@H](C)[C@H](CN(C)C(=O)Nc2ccc(C(F)(F)F)cc2)OCCCC[C@@H](C)O3)cc1,inactive,inactive
COc1cc(C(=O)OCCN2CCCN(CCOC(=O)c3cc(OC)c(OC)c(OC)c3)CC2)cc(OC)c1OC,inactive,inactive
CN(C)C(=O)CN1CCC2(CC1)CN(CCn1cccn1)C(=O)CO2,inactive,inactive
C[C@@H]1CN([C@@H](C)CO)C(=O)c2cccc(NS(=O)(=O)c3cn(C)cn3)c2O[C@@H]1CN(C)Cc1ccc(C(=O)Nc2ccccc2N)cc1,inactive,inactive
O=C(Nc1ccno1)NN1CCOCC1,inactive,inactive
COc1nn(C)cc1C(=O)Nc1ccon1,inactive,inactive
CO[C@H]1CN(C)C(=O)c2cc(NC(=O)Nc3ccccc3)ccc2OC[C@@H](C)N(C(=O)CN(C)C)C[C@H]1C,inactive,inactive
C[C@@H]1CN([C@@H](C)CO)C(=O)c2cc(NC(=O)C3CCCCC3)ccc2O[C@@H](C)CCCCO[C@@H]1CN(C)Cc1ccc(Cl)c(Cl)c1,inactive,inactive
C[C@@H]1CN([C@H](C)CO)C(=O)Cc2cc(NC(=O)C3CCCCC3)ccc2O[C@H]1CN(C)Cc1ccc(C(F)(F)F)cc1,inactive,inactive
Cn1cnc(S(=O)(=O)N2C[C@@H](O)COC[C@@H]3O[C@@H](CC(=O)NCc4cccc(F)c4)CC[C@H]32)c1,inactive,inactive
CC(C)NC(=O)N(C)C[C@H]1Oc2c(NS(=O)(=O)c3ccc(F)cc3)cccc2C(=O)N([C@H](C)CO)C[C@@H]1C,inactive,inactive
O=C(c1ccco1)N1CCNCC1,inactive,inactive
C[C@@H]1CCCCO[C@@H](CN(C)S(C)(=O)=O)[C@@H](C)CN([C@@H](C)CO)C(=O)c2cc(N(C)C)ccc2O1,inactive,inactive
C[C@H](CO)N1C[C@H](C)[C@H](CN(C)CC2CC2)Oc2ccc(NS(=O)(=O)c3ccccc3)cc2CC1=O,inactive,inactive
CC(C)NC(=O)N(C)C[C@@H]1OCCCC[C@@H](C)Oc2ccc(NC(=O)C3CCCCC3)cc2C(=O)N([C@H](C)CO)C[C@H]1C,inactive,inactive
COc1ccc(C(=O)Nc2ccc(CN3C(=O)[C@]4(O[C@H](CCO)[C@@H]([Si](C)(C)F)[C@@H]4C)c4ccccc43)cc2)cc1,inactive,inactive
C[C@H](CO)N1C[C@H](C)[C@@H](CN(C)C(=O)CN(C)C)Oc2cc(C#C[C@@H](C)O)ccc2S1(=O)=O,inactive,inactive
COc1ccc(S(=O)(=O)N(C)C[C@@H]2Oc3ccc(NC(=O)C4CC4)cc3C(=O)N([C@@H](C)CO)C[C@H]2C)cc1,inactive,inactive
O=C(C[C@H]1C=C[C@H](NC(=O)c2cnccn2)[C@H](CO)O1)NCc1ccccc1F,inactive,inactive
